Among the data in a collection of fitness landscapes (doi:10.1126/science.1257360) are enrichment ratio values, retold here.

Some of the results follow. Bounds are passed on as bounds.

B1: PhoQ; a variant is named by its letters at X, in order, P23837 (parent)
chain: MKKLLRLFFPLSLRVRFLLATAAVVLVLSLAYGMVALIGYSVSFDKTTFRLLRGESNLFYTLAKWENNKLHVELPENIDKQSPTMTLIYDENGQLLWAQRDVPWLMKMIQPDWLKSNGFHEIEADVNDTSLLLSGDHSIQQQLQEVREDDDDAEMTHSVAVNVYPATSRMPKLTIVVVDTIPVELKSSYMVWSWFIYVLSANLLLVIPLLWVAAWWSLRPIEALAKEVRELEEHNRELLNPATTRELTSLVRNLNRLLKSERERYDKYRTTLTDLTHSLKTPLXXLQXXLRSLRSEKMSVSDAEPVMLEQISRISQQIGYYLHRASMRGGTLLSRELHPVAPLLDNLTSALNKVYQRKGVNISLDISPEISFVGEQNDFVEVMGNVLDNACKYCLEFVEISARQTDEHLYIVVEDDGPGIPLSKREVIFDRGQRVDTLRPGQGVGLAVAREITEQYEGKIVAGESMLGGARMEVIFGRQHSAPKDE

The test covers variants of B1. The test is described as follows: enrichment ratio after two sorts for PhoP signalling (ratio (wild type AVST 3.29)); higher = more functional. The following applies: with PhoP (E. coli).
Regarding KGGA, the enrichment ratio was at most 0.25.

For WMYI, the enrichment ratio is at most 0.25.

In the case of QWPK, the enrichment ratio is at most 0.25.

With TPII, the enrichment ratio was at most 0.25.

On to HNMP, for which the enrichment ratio was at most 0.25.

Take WYTN: the enrichment ratio was at most 0.25.

Turning to VPVC, the enrichment ratio is at most 0.25.

Take FKKN: the enrichment ratio was at most 0.25.

As to TNHH, the enrichment ratio was at most 0.25.

Regarding QKCS, the enrichment ratio was at most 0.25.

In the case of QYLS, the enrichment ratio was at most 0.25.

As to HYSL, the enrichment ratio was at most 0.25.

For NKHF, the enrichment ratio was at most 0.25.

EKYN: the enrichment ratio is at most 0.25.

On to LGQI, for which the enrichment ratio was at most 0.25.

For the variant WVLF, the enrichment ratio is at most 0.25.

In the case of FDER, the enrichment ratio was at most 0.25.

Take MSYP: the enrichment ratio was at most 0.25.

For the variant FIAI, the enrichment ratio is at most 0.25.

For the variant DKQL, the enrichment ratio is at most 0.25.

YFWH: the enrichment ratio was at most 0.25.

On to RVYL, for which the enrichment ratio is at most 0.25.

Regarding FKLQ, the enrichment ratio was at most 0.25.

For the variant QQSI, the enrichment ratio was 8.77.

MINK: the enrichment ratio is at most 0.25.

Turning to GTFR, the enrichment ratio is at most 0.25.

As for SFQR, the enrichment ratio is at most 0.25.

On to CYFL, for which the enrichment ratio was at most 0.25.

RLKY: the enrichment ratio is at most 0.25.

Consider YIIH, for which the enrichment ratio was at most 0.25.

As for HNFY, the enrichment ratio was at most 0.25.

As to HKEV, the enrichment ratio was at most 0.25.

In the case of WFQW, the enrichment ratio is at most 0.25.

As for KGLD, the enrichment ratio was at most 0.25.

For the variant MDYL, the enrichment ratio was 1.6.

With PYER, the enrichment ratio is at most 0.25.

For HEMS, the enrichment ratio came to 2.49.

Take TMEP: the enrichment ratio was at most 0.25.

With KNWS, the enrichment ratio is at most 0.25.

Take PLMR: the enrichment ratio was at most 0.25.

MYTK: the enrichment ratio was at most 0.25.

With KMMV, the enrichment ratio was at most 0.25.

Regarding VVHG, the enrichment ratio is at most 0.25.

FVDF: the enrichment ratio is at most 0.25.

FKFD: the enrichment ratio is at most 0.25.

As for QNGD, the enrichment ratio is at most 0.25.

With QLAI, the enrichment ratio is at most 0.25.

With WPML, the enrichment ratio is at most 0.25.

Consider HMCW, for which the enrichment ratio is at most 0.25.

Regarding QYYQ, the enrichment ratio was at most 0.25.

For IIFN, the enrichment ratio is at most 0.25.

Consider GFCR, for which the enrichment ratio is at most 0.25.

Regarding APYE, the enrichment ratio is at most 0.25.

Take IMEA: the enrichment ratio is at most 0.25.

As to LSMM, the enrichment ratio amounted to 12.4.

As for EREF, the enrichment ratio is at most 0.25.

GVTI: the enrichment ratio amounted to 4.7.

For QPHP, the enrichment ratio is at most 0.25.

For IRWR, the enrichment ratio is at most 0.25.

For VGDD, the enrichment ratio was at most 0.25.

For the variant GTRI, the enrichment ratio was at most 0.25.

For the variant FIGT, the enrichment ratio is at most 0.25.

For TGVH, the enrichment ratio was 1.88.

In the case of HNHS, the enrichment ratio is at most 0.25.

In the case of WLMK, the enrichment ratio is at most 0.25.

Consider RVPD, for which the enrichment ratio is at most 0.25.

On to YRMM, for which the enrichment ratio is at most 0.25.

On to KNLF, for which the enrichment ratio is at most 0.25.

For ATII, the enrichment ratio came out at 7.4.

As for YAVH, the enrichment ratio was at most 0.25.

On to HVWL, for which the enrichment ratio is at most 0.25.

Turning to YRYI, the enrichment ratio was at most 0.25.

QFRK: the enrichment ratio was at most 0.25.

On to AERA, for which the enrichment ratio was at most 0.25.

As to LEIF, the enrichment ratio was at most 0.25.

On to IQQN, for which the enrichment ratio is at most 0.25.

VFWK: the enrichment ratio was at most 0.25.

In the case of TSHC, the enrichment ratio is 10.

For the variant AHCE, the enrichment ratio was at most 0.25.

In the case of DHTR, the enrichment ratio is at most 0.25.

Consider DISC, for which the enrichment ratio is at most 0.25.

Consider HFSY, for which the enrichment ratio is at most 0.25.

As for TTTQ, the enrichment ratio amounted to 4.04.

For VTNR, the enrichment ratio was at most 0.25.

In the case of RIDS, the enrichment ratio is at most 0.25.

As for VRPV, the enrichment ratio is at most 0.25.

For DPGE, the enrichment ratio is at most 0.25.

In the case of YEWW, the enrichment ratio was at most 0.25.

With PWLT, the enrichment ratio was at most 0.25.

In the case of WFVS, the enrichment ratio was at most 0.25.

Regarding VTDQ, the enrichment ratio was at most 0.25.

HIYY: the enrichment ratio was at most 0.25.

For AKLM, the enrichment ratio was determined as 12.4.

Consider APLE, for which the enrichment ratio is at most 0.25.

For EHCL, the enrichment ratio was at most 0.25.

With QTYQ, the enrichment ratio was found to be 4.58.

Regarding NASF, the enrichment ratio was at most 0.25.

For the variant LPNL, the enrichment ratio was at most 0.25.

IMAQ: the enrichment ratio was at most 0.25.

In the case of YHEP, the enrichment ratio is at most 0.25.

In the case of ILPA, the enrichment ratio is at most 0.25.

For TYIH, the enrichment ratio is at most 0.25.

Consider DMPP, for which the enrichment ratio is at most 0.25.

GREC: the enrichment ratio is at most 0.25.

With DGAK, the enrichment ratio is at most 0.25.

Consider RYGV, for which the enrichment ratio is at most 0.25.

For NPHN, the enrichment ratio was at most 0.25.

Turning to KALD, the enrichment ratio is at most 0.25.

Consider HDHR, for which the enrichment ratio was at most 0.25.

PTDK: the enrichment ratio is at most 0.25.

With QEFQ, the enrichment ratio was at most 0.25.

LSFF: the enrichment ratio was determined as 0.737.

WLRF: the enrichment ratio is at most 0.25.

In the case of MDKF, the enrichment ratio is at most 0.25.

As for RILH, the enrichment ratio is at most 0.25.

Take LSND: the enrichment ratio was at most 0.25.

For GLAH, the enrichment ratio was at most 0.25.

In the case of DQAI, the enrichment ratio is 5.63.

For FKQK, the enrichment ratio was at most 0.25.

Turning to TTPA, the enrichment ratio was at most 0.25.

For the variant GEVS, the enrichment ratio is 7.86.

As for GHLC, the enrichment ratio was at most 0.25.

Take TFKM: the enrichment ratio was at most 0.25.

As for QSTN, the enrichment ratio was at most 0.25.

With YYYH, the enrichment ratio was at most 0.25.

Take NQHM: the enrichment ratio was at most 0.25.

Regarding PGCT, the enrichment ratio was at most 0.25.

For RAWW, the enrichment ratio is at most 0.25.

Take DIHY: the enrichment ratio was at most 0.25.

For TYHC, the enrichment ratio is at most 0.25.

On to FIFY, for which the enrichment ratio was at most 0.25.

For the variant RGGE, the enrichment ratio is at most 0.25.

With YREL, the enrichment ratio was at most 0.25.

Take ETIY: the enrichment ratio was at most 0.25.

On to GDGN, for which the enrichment ratio is at most 0.25.

MPQR: the enrichment ratio was at most 0.25.

Consider NQQM, for which the enrichment ratio is at most 0.25.

For the variant AQSQ, the enrichment ratio is 1.5.

For the variant CALN, the enrichment ratio stood at 65.

Take FIYM: the enrichment ratio is at most 0.25.

As to YDHW, the enrichment ratio is at most 0.25.

On to TLGN, for which the enrichment ratio was 7.31.

For GPNM, the enrichment ratio was at most 0.25.

For PTYF, the enrichment ratio was at most 0.25.

With NYGK, the enrichment ratio was at most 0.25.

Take YQGI: the enrichment ratio was at most 0.25.

With SQTA, the enrichment ratio is 0.808.

For QCST, the enrichment ratio was found to be 2.83.

With SKKA, the enrichment ratio is at most 0.25.

Consider VDTE, for which the enrichment ratio is at most 0.25.

HYQS: the enrichment ratio was at most 0.25.

Regarding KPAD, the enrichment ratio is at most 0.25.

IDHM: the enrichment ratio is at most 0.25.
